# Measured values reported in the supplement of paper PMC3334620.
# Whole data set: some 33,000 sequences, median “E-score (-0.5 to 0.5)” near -0.012, cut for the highest 2% near 0.29. This is one part of the list.
# Target: T1, Ybr033w (UniProt P38073)
# T1 sequence: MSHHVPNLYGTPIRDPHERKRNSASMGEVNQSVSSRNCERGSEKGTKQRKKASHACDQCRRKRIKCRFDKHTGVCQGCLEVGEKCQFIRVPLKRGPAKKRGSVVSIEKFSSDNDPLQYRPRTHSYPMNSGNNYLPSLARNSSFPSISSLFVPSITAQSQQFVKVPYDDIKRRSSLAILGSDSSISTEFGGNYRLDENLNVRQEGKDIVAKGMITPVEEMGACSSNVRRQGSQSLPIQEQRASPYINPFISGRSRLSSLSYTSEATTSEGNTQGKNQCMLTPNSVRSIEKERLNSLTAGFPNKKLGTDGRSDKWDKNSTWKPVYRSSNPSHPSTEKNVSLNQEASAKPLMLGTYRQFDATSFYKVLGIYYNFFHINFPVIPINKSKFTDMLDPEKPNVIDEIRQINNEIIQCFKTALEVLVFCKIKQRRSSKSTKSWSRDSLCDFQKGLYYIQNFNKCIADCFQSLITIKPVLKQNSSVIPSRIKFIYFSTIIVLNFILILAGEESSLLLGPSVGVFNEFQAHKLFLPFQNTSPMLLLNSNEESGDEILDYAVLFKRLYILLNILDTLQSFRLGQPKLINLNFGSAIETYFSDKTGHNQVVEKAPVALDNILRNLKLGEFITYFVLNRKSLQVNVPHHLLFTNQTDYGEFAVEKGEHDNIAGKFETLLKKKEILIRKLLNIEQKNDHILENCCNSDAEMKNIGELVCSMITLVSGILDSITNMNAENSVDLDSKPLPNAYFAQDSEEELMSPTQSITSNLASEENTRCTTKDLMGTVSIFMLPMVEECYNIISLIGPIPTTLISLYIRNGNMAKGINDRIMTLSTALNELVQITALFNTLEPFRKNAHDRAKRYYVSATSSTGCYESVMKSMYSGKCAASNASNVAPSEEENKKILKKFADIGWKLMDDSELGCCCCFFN
# Test: PBM E-score (8-mer binding enrichment) (E-score (-0.5 to 0.5)); higher = stronger / more preferred TF binding; most listed sequences are background and not binding sites
# Details: protein concentration: 200 nM; construct: GST-full length
# Experimental: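 Universal 'all 10-mer' protein binding microarrays (Agilent AMADID 015681) probed with GST-tagged S. cerevisiae TFs (full-length or DBD) made by in vitro transcription/translation (PURExpress), about 100-200 nM. Bound TF was detected with fluorescent anti-GST. Each ungapped 8-mer (which stands for itself and its reverse complement) is scored by the PBM enrichment score (E-score), a modified Wilcoxon-Mann-Whitney statistic from -0.5 to +0.5, computed with the Universal PBM Analysis Suite. Scale: above 0.35 generally sequence-specific binding.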
row,Sequence,PBM E-score
1,AAGAGTGC,-0.054
2,TCAAGGAA,0.12
3,AATCGCCA,0.0302
4,AGTGGTAT,0.0407
5,TCCCGAAA,0.0273
6,AGACTTAC,-0.129
7,ATGCTCCG,-0.212
8,ACCACCCA,-0.102
9,AATTTGGT,0.209
10,ACAGGTAA,0.0373
11,AATGGATG,-0.0366
12,AATGTTTC,0.116
13,ACACAACA,0.126
14,CGACGTTA,0.195
15,ACTACGGC,0.0341
16,GACGCGGC,-0.131
17,CAAGCGGC,-0.0713
18,CTCTTTAC,0.00327
19,ACTTGACA,-0.0363
20,GTTGTCAA,-0.00319
21,GCACATGA,-0.102
22,CCCGGTCA,-0.282
23,GCTATTAA,0.201
24,GGAATACC,-0.0772
25,AGAAAACC,-0.0273

row,Sequence,PBM E-score
1,TCACTTAA,0.192
2,AAGCCCCT,-0.278
3,ATATTGAC,-0.133
4,GTAATACA,0.163
5,ACCATTAG,0.117
6,GTCTCTGA,-0.0937
7,AATGTCAC,0.134
8,CGCTTTAA,-0.0255
9,ATTCTGTC,0.0466
10,ACATAGCT,-0.119
11,TTGACCAA,0.0648
12,ACAACCTA,0.0632
13,ACATGGCC,-0.0121
14,ATAAACTA,0.244
15,CGTAACAA,0.194
16,ACGAGTCG,0.0738
17,CGAAGGAG,-0.131
18,TACATCTA,0.197
19,ACTCGAAA,0.0672
20,ACGTCCGC,-0.121
21,GAGAGACC,-0.304
22,ACAACCGT,-0.03
23,CTGTCCGC,-0.103
24,TGATAGCA,0.126
25,AAATGATA,0.345

row,Sequence,PBM E-score
1,ATGTAAAT,0.245
2,GACAACCC,-0.254
3,GACTTTCA,-0.097
4,ATACACGG,-0.0216
5,AGCGGATG,-0.216
6,CCGAAGGA,-0.178
7,AGAGCTAC,-0.0969
8,ATTCAGAA,0.0954
9,CGGCACTC,-0.128
10,CACGATCC,-0.0767
11,GCACAAGC,-0.138
12,AGGGGCCC,-0.382
13,CTAATTAG,0.141
14,AAGCGCTT,0.0897
15,CATGGCCC,-0.116
16,ATCCGGTG,0.136
17,CCGTATAC,0.0358
18,CCGAGACA,-0.144
19,ACTATTCA,0.217
20,CGGTGCAC,-0.174
21,CTATAGCC,-0.215
22,CAACCGCC,-0.109
23,TAGGTTAA,0.182
24,GGGACAAA,0.006
25,CTCCAGAC,-0.17

row,Sequence,PBM E-score
1,CGGTTCCC,-0.253
2,CTTATGTC,0.029
3,TCCGTTAA,0.244
4,TAGAGTAA,0.227
5,GTTGGCAA,0.0463
6,AGATCAAG,0.149
7,AAGGTTCG,-0.0859
8,GCCTAACC,-0.124
9,TATGTGAA,-0.0515
10,CAAAGTCC,-0.0191
11,GCACATAA,0.00793
12,CCCCTTCG,-0.317
13,CAGCGCCG,-0.228
14,CAGCAGAC,-0.106
15,CGGAGAAA,0.39
16,AACCTGCC,-0.0858
17,CCAGGTAC,-0.147
18,ACGTATCA,0.0624
19,CCGTGTCC,-0.204
20,AACTAATA,0.298
21,CCAGGTAA,-0.0631
22,CAAAGCCG,-0.00452
23,GGGAATCA,0.0407
24,ACAAAAGT,0.0857
25,TAAAGGCA,0.131

row,Sequence,PBM E-score
1,AAGGGACG,-0.22
2,CGAGTAGA,-0.00374
3,ACTTGATG,0.218
4,ACAAAATC,0.254
5,GGGTTGAA,-0.201
6,ATCAGTCC,-0.423
7,CCTTAAGG,0.273
8,CGCATACG,-0.0753
9,ACCTGCGT,0.00259
10,CGCTAGGA,-0.051
11,GATGGGGA,-0.187
12,AACCACAT,0.00349
13,GAAGTAGC,-0.105
14,GGCCTTTA,-0.212
15,GTGGCCAA,0.0246
16,GGGGGCGA,-0.35
17,AGTCTCAC,-0.0327
18,CATGAACG,-0.0887
19,CTGGCACC,-0.266
20,AATCGATT,0.0284
21,CAGCCACA,0.0002
22,CCCAAGCC,-0.171
23,CTGCGTAC,-0.21
24,ACACGTGC,-0.249
25,CAACGGTA,-0.111

row,Sequence,PBM E-score
1,ATAAGGAC,-0.0427
2,ACGGGAGC,-0.128
3,CACAGCAG,-0.148
4,TAGGTCCA,0.0175
5,CCAGATGA,-0.109
6,AATACGTA,0.179
7,TATCTTAA,0.121
8,ATTATCAC,0.162
9,ATTAGCAA,0.219
10,ACCGCCGC,-0.142
11,AAAGGTTA,0.0425
12,TATCGTAA,0.135
13,ACCGCGTC,-0.0679
14,GGTGATAC,-0.0918
15,AAAAGCAG,-0.108
16,CACCGCAC,-0.299
17,GCATGGCA,-0.0442
18,ACGGGTAA,0.0288
19,CAGCTTGG,-0.105
20,GCGAAACC,0.108
21,GCGCCCAA,-0.0472
22,TCTATAGA,0.172
23,AAAGGAAC,0.163
24,GAGGCCCC,-0.354
25,AGGCCCAT,-0.318

row,Sequence,PBM E-score
1,CTAACCTC,0.115
2,CCGAGAGC,-0.273
3,TATCAAAA,0.162
4,ATATACAA,0.268
5,GATCACAA,0.0194
6,CTCGTCAC,0.0546
7,ACTACATC,0.0912
8,GAAACGGC,-0.0362
9,CAACTTTA,0.244
10,GCCCGAGA,0.0314
11,CCAAGCAC,-0.0119
12,AAATAATG,0.227
13,CCGAATAC,0.105
14,GGACGAAC,0.00863
15,GCTAAGCA,-0.0595
16,CACATTGA,0.0793
17,AACGTAGT,0.0865
18,ATATGGTA,0.11
19,CGTTGTAA,-0.0617
20,ACCCTGGC,-0.23
21,GTAAGATA,0.0869
22,GCCGGTCA,-0.264
23,GGTGTTAA,0.00765
24,CGAGTTAC,0.111
25,ACCATTGC,-0.0971

row,Sequence,PBM E-score
1,GCGAAACA,0.0147
2,AGAGGTTC,0.0157
3,CTCACGAG,-0.0974
4,CTCAATTC,-0.0331
5,ATCATGCA,-0.0407
6,GTGTGTAA,0.0961
7,AGAACCAC,-0.00822
8,ACGATCGT,-0.115
9,GTGGGGAA,0.0367
10,GGCCTGTA,-0.154
11,CCTCTTGA,0.0387
12,CTGCGCAC,-0.0465
13,AAGGCCAT,-0.094
14,ACTTTTGG,0.0216
15,AAACCGTG,-0.0939
16,GCCGCATA,0.117
17,CCGTTACA,0.102
18,CCTGCAGC,-0.0205
19,TATCCATA,0.273
20,TGCCAACA,0.0786
21,AGTTAGTG,0.0411
22,AAATAGAT,0.289
23,TATCGGGA,0.0117
24,ACATCCCT,0.0484
25,ATGTCCTA,-0.0661

row,Sequence,PBM E-score
1,TGTAGGAA,0.0534
2,AAGAGCTG,-0.147
3,AGGTTGAA,0.141
4,CACGTCCC,-0.326
5,AAATACCG,0.18
6,AGGCCCAA,-0.065
7,CGCCACAG,-0.179
8,TTATAGAA,0.216
9,AGCAGTCA,-0.0659
10,ATTGAAAG,0.111
11,CCGAAATA,0.254
12,CCTGTTTC,0.0175
13,TACGACGA,0.0508
14,GGGGCCCA,-0.372
15,CAAATCAG,0.0133
16,CATTCCGA,0.15
17,CTGATAGC,-0.0429
18,GGCTCATA,-0.00879
19,AGCACCTC,0.0336
